Data taken from the supplement of paper PMC10126150.
Values marked as one replicate rest on one cluster of the flow cell; about a third of the high ones do not repeat.

Tested on: ATP
Assay: switch fluorescence ratio, 500 uM ATP over buffer (Cy3 cluster intensity, sum of 5 cycles each) (fold (ratio)); higher = stronger signal-on switching upon ATP binding; sequences stand for … in TCGTCGGCAGCGTCAGATGTGTATAAGAGACAGTTTTTTTTTTTTTTTTTTTTTTTTT…TC
Conditions: aptamer strand: ATP DNA aptamer (quencher-CACCTGGGGGAGTATTGCGGAGGAAGG + anchor), 100 nM annealed; ATP concentration: 500 uM; one replicate
Procedure, shortened: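 Per cluster, summed Cy3 intensity from the target cycles was divided by that from the buffer cycles to give the fluorescence ratio, then averaged per switch-domain sequence. Clusters outside 100-1000 RFU were excluded. The Cy3-labelled switching-strand clusters, on a modified Illumina MiSeq flow-cell, were annealed to 100 nM quencher-labelled ATP aptamer and imaged in selection buffer, then after 15 min with 500 uM ATP at 22 °C, for five cycles with NaOH stripping and re-annealing between them.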
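Also: ATP exposure 15 min at 22 °C before imaging.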

Q: For GATGCGGTGT, which switch fluorescence ratio is on record?
A: 0.992

Q: With GATGCGTACT as the sequence, how does the switch fluorescence ratio read?
A: 1.07

Q: GATGCTAACT was tested. Which switch fluorescence ratio did it give?
A: 1.01

Q: How did the switch fluorescence ratio turn out when GATGCTGGGC was run?
A: 0.973

Q: GATGCTTAGG was tested. Which switch fluorescence ratio did it give?
A: 1.01

Q: GATGGCAAGC was tested. Which switch fluorescence ratio did it give?
A: 2.31

Q: Which switch fluorescence ratio does the source give for GATGGCCGGA here?
A: 1.05

Q: With GATGGCGTGA as the sequence, how does the switch fluorescence ratio read?
A: 0.954

Q: With GATGGCTGTT as the sequence, how does the switch fluorescence ratio read?
A: 1.02

Q: For GATGGGACTG, which switch fluorescence ratio is on record?
A: 0.954

Q: GATGGGCTAT was tested. Which switch fluorescence ratio did it give?
A: 1.05

Q: How did the switch fluorescence ratio turn out when GATGGTGCCG was run?
A: 0.997

Q: With GATGGTTTAC as the sequence, how does the switch fluorescence ratio read?
A: 1.02

Q: With GATGTACCGT as the sequence, how does the switch fluorescence ratio read?
A: 1.05

Q: For GATGTAGTTA, which switch fluorescence ratio is on record?
A: 0.983

Q: GATGTATTGC was tested. Which switch fluorescence ratio did it give?
A: 1.05

Q: GATGTCAATA was tested. Which switch fluorescence ratio did it give?
A: 1.05

Q: Which switch fluorescence ratio does the source give for GATGTCCGCT here?
A: 1.13

Q: With GATGTCGGGA as the sequence, how does the switch fluorescence ratio read?
A: 0.99

Q: For GATGTCTACG, which switch fluorescence ratio is on record?
A: 1.01

Q: With GATGTCTATT as the sequence, how does the switch fluorescence ratio read?
A: 0.993

Q: How did the switch fluorescence ratio turn out when GATGTCTCAT was run?
A: 1.03

Q: GATGTGAGTG was tested. Which switch fluorescence ratio did it give?
A: 0.977

Q: GATGTGATGG was tested. Which switch fluorescence ratio did it give?
A: 0.969

Q: Which switch fluorescence ratio does the source give for GATGTGCGGG here?
A: 1.01

Q: For GATGTGTACC, which switch fluorescence ratio is on record?
A: 1.07

Q: With GATGTGTGTG as the sequence, how does the switch fluorescence ratio read?
A: 0.977

Q: With GATGTGTTAA as the sequence, how does the switch fluorescence ratio read?
A: 1.01

Q: For GATGTTAGGC, which switch fluorescence ratio is on record?
A: 0.962

Q: For GATGTTCATG, which switch fluorescence ratio is on record?
A: 0.983

Q: With GATGTTCGTC as the sequence, how does the switch fluorescence ratio read?
A: 0.978

Q: For GATTAAAAAA, which switch fluorescence ratio is on record?
A: 1

Q: For GATTAAAATC, which switch fluorescence ratio is on record?
A: 0.976

Q: For GATTAAGGCG, which switch fluorescence ratio is on record?
A: 1.04

Q: Which switch fluorescence ratio does the source give for GATTAAGTAA here?
A: 0.975

Q: How did the switch fluorescence ratio turn out when GATTACAGGA was run?
A: 1.09

Q: How did the switch fluorescence ratio turn out when GATTACCGA was run?
A: 1.03

Q: How did the switch fluorescence ratio turn out when GATTACCGTT was run?
A: 0.998

Q: How did the switch fluorescence ratio turn out when GATTACCTAG was run?
A: 1.05

Q: Which switch fluorescence ratio does the source give for GATTAGCTTG here?
A: 1.04

Q: For GATTATATTA, which switch fluorescence ratio is on record?
A: 0.984

Q: With GATTATTTTG as the sequence, how does the switch fluorescence ratio read?
A: 1.04

Q: Which switch fluorescence ratio does the source give for GATTCCGGCG here?
A: 1.17

Q: GATTCGCGGG was tested. Which switch fluorescence ratio did it give?
A: 0.993

Q: How did the switch fluorescence ratio turn out when GATTCGTTCG was run?
A: 0.981

Q: How did the switch fluorescence ratio turn out when GATTCGTTCT was run?
A: 1.01

Q: GATTCTGCAT was tested. Which switch fluorescence ratio did it give?
A: 1.08

Q: Which switch fluorescence ratio does the source give for GATTCTTCCC here?
A: 1.08

Q: Which switch fluorescence ratio does the source give for GATTGAGGTG here?
A: 0.983

Q: How did the switch fluorescence ratio turn out when GATTGATACT was run?
A: 0.957

Q: GATTGCCCGC was tested. Which switch fluorescence ratio did it give?
A: 1.05

Q: How did the switch fluorescence ratio turn out when GATTGCCTCG was run?
A: 0.966

Q: GATTGCTAT was tested. Which switch fluorescence ratio did it give?
A: 0.958

Q: GATTGGCATT was tested. Which switch fluorescence ratio did it give?
A: 0.969

Q: How did the switch fluorescence ratio turn out when GATTGGGGAC was run?
A: 0.979

Q: For GATTGTATTA, which switch fluorescence ratio is on record?
A: 1.01

Q: How did the switch fluorescence ratio turn out when GATTGTGTGC was run?
A: 0.974

Q: With GATTTAAGGC as the sequence, how does the switch fluorescence ratio read?
A: 0.94

Q: How did the switch fluorescence ratio turn out when GATTTACCAA was run?
A: 1.01

Q: With GATTTAGTAG as the sequence, how does the switch fluorescence ratio read?
A: 1.03

Q: How did the switch fluorescence ratio turn out when GATTTAGTTT was run?
A: 0.973

Q: GATTTATGGC was tested. Which switch fluorescence ratio did it give?
A: 1.01

Q: GATTTCAGAT was tested. Which switch fluorescence ratio did it give?
A: 0.989

Q: GATTTCGGGC was tested. Which switch fluorescence ratio did it give?
A: 1.01

Q: For GATTTCTATA, which switch fluorescence ratio is on record?
A: 1.01

Q: For GATTTCTTAG, which switch fluorescence ratio is on record?
A: 0.98

Q: GATTTGGGGG was tested. Which switch fluorescence ratio did it give?
A: 1

Q: With GATTTGGTCC as the sequence, how does the switch fluorescence ratio read?
A: 1.03

Q: For GATTTGTCCG, which switch fluorescence ratio is on record?
A: 0.999

Q: With GATTTGTGTA as the sequence, how does the switch fluorescence ratio read?
A: 0.969

Q: For GATTTTGCTG, which switch fluorescence ratio is on record?
A: 0.977

Q: For GATTTTTCCG, which switch fluorescence ratio is on record?
A: 1.04

Q: How did the switch fluorescence ratio turn out when GATTTTTTCA was run?
A: 0.986

Q: How did the switch fluorescence ratio turn out when GCAAAACAGG was run?
A: 1.03

Q: GCAAACCCGG was tested. Which switch fluorescence ratio did it give?
A: 1.08

Q: GCAAACTTAA was tested. Which switch fluorescence ratio did it give?
A: 1.04

Q: Which switch fluorescence ratio does the source give for GCAAAGGGGA here?
A: 0.998

Q: With GCAACATTCA as the sequence, how does the switch fluorescence ratio read?
A: 1.07

Q: With GCAACCGCTT as the sequence, how does the switch fluorescence ratio read?
A: 1.09

Q: How did the switch fluorescence ratio turn out when GCAACGCGGC was run?
A: 1.13

Q: For GCAACGTAGT, which switch fluorescence ratio is on record?
A: 0.982

Q: GCAACGTGTT was tested. Which switch fluorescence ratio did it give?
A: 1.02

Q: With GCAACTAAT as the sequence, how does the switch fluorescence ratio read?
A: 2

Q: GCAACTAGG was tested. Which switch fluorescence ratio did it give?
A: 0.965

Q: How did the switch fluorescence ratio turn out when GCAAGCATGC was run?
A: 1.14

Q: Which switch fluorescence ratio does the source give for GCAAGCCGCG here?
A: 1.02

Q: With GCAAGTAAAG as the sequence, how does the switch fluorescence ratio read?
A: 0.992

Q: GCAAGTCAAC was tested. Which switch fluorescence ratio did it give?
A: 1.11

Q: For GCAATACAGT, which switch fluorescence ratio is on record?
A: 3.97

Q: Which switch fluorescence ratio does the source give for GCAATCGGCT here?
A: 0.92

Q: GCAATGATAA was tested. Which switch fluorescence ratio did it give?
A: 1.06

Q: With GCAATGCAGC as the sequence, how does the switch fluorescence ratio read?
A: 1.11

Q: Which switch fluorescence ratio does the source give for GCAATGGGT here?
A: 1.11

Q: Which switch fluorescence ratio does the source give for GCAATGTGG here?
A: 1.04

Q: GCAATTAG was tested. Which switch fluorescence ratio did it give?
A: 1.52

Q: How did the switch fluorescence ratio turn out when GCAATTGTAG was run?
A: 1.01

Q: How did the switch fluorescence ratio turn out when GCACAAGCGT was run?
A: 0.995

Q: Which switch fluorescence ratio does the source give for GCACAAGTCT here?
A: 1.03

Q: Which switch fluorescence ratio does the source give for GCACACAAAT here?
A: 1

Q: GCACACCGGA was tested. Which switch fluorescence ratio did it give?
A: 1.18

Q: GCACCAGCAT was tested. Which switch fluorescence ratio did it give?
A: 1.03

Q: GCACCATTAA was tested. Which switch fluorescence ratio did it give?
A: 1.03

Q: GCACCCTAGA was tested. Which switch fluorescence ratio did it give?
A: 0.999

Q: GCACCGGGAC was tested. Which switch fluorescence ratio did it give?
A: 1.57

Q: With GCACCGGTGT as the sequence, how does the switch fluorescence ratio read?
A: 1.02

Q: How did the switch fluorescence ratio turn out when GCACCGTAGG was run?
A: 1.03

Q: For GCACCTCATT, which switch fluorescence ratio is on record?
A: 1.03

Q: How did the switch fluorescence ratio turn out when GCACGACTGA was run?
A: 1.06

Q: GCACGAGGGA was tested. Which switch fluorescence ratio did it give?
A: 1.11

Q: How did the switch fluorescence ratio turn out when GCACGAGTTA was run?
A: 0.996

Q: For GCACGTACGC, which switch fluorescence ratio is on record?
A: 1.65

Q: With GCACGTGCCA as the sequence, how does the switch fluorescence ratio read?
A: 0.98

Q: GCACTAGGGT was tested. Which switch fluorescence ratio did it give?
A: 1.02

Q: For GCACTCGGGT, which switch fluorescence ratio is on record?
A: 1.03

Q: For GCACTGAACT, which switch fluorescence ratio is on record?
A: 1.14

Q: With GCACTGATAG as the sequence, how does the switch fluorescence ratio read?
A: 1.01

Q: Which switch fluorescence ratio does the source give for GCACTGGAGG here?
A: 0.973

Q: Which switch fluorescence ratio does the source give for GCACTTAGT here?
A: 1.07

Q: Which switch fluorescence ratio does the source give for GCACTTCGGA here?
A: 1.05

Q: With GCACTTGGAT as the sequence, how does the switch fluorescence ratio read?
A: 0.992

Q: Which switch fluorescence ratio does the source give for GCAGAAAATG here?
A: 0.976

Q: How did the switch fluorescence ratio turn out when GCAGAAAGGC was run?
A: 1.16

Q: Which switch fluorescence ratio does the source give for GCAGAAGGGG here?
A: 1

Q: GCAGAATACT was tested. Which switch fluorescence ratio did it give?
A: 1.3

Q: Which switch fluorescence ratio does the source give for GCAGACCTAC here?
A: 1.32

Q: Which switch fluorescence ratio does the source give for GCAGACGAGT here?
A: 0.93

Q: Which switch fluorescence ratio does the source give for GCAGACTCTG here?
A: 0.984

Q: With GCAGAGGAAG as the sequence, how does the switch fluorescence ratio read?
A: 1.05

Q: How did the switch fluorescence ratio turn out when GCAGAGGGAC was run?
A: 1.02

Q: For GCAGAGTATG, which switch fluorescence ratio is on record?
A: 1

Q: For GCAGATCCGG, which switch fluorescence ratio is on record?
A: 0.971

Q: How did the switch fluorescence ratio turn out when GCAGATGGAA was run?
A: 0.997

Q: For GCAGCACCGG, which switch fluorescence ratio is on record?
A: 1.05

Q: For GCAGCCAACG, which switch fluorescence ratio is on record?
A: 1.08

Q: With GCAGCGAGAG as the sequence, how does the switch fluorescence ratio read?
A: 2.31

Q: GCAGCGCCGC was tested. Which switch fluorescence ratio did it give?
A: 1.04

Q: How did the switch fluorescence ratio turn out when GCAGCTAGTG was run?
A: 1.04

Q: For GCAGCTATAG, which switch fluorescence ratio is on record?
A: 4.36

Q: How did the switch fluorescence ratio turn out when GCAGGATATC was run?
A: 1.04

Q: How did the switch fluorescence ratio turn out when GCAGGCACAG was run?
A: 1

Q: With GCAGGCATAG as the sequence, how does the switch fluorescence ratio read?
A: 1.01

Q: For GCAGGCGACG, which switch fluorescence ratio is on record?
A: 0.975

Q: Which switch fluorescence ratio does the source give for GCAGGCTTAT here?
A: 0.946

Q: How did the switch fluorescence ratio turn out when GCAGGGACGG was run?
A: 0.995

Q: For GCAGGGTTTG, which switch fluorescence ratio is on record?
A: 1

Q: For GCAGGTCATA, which switch fluorescence ratio is on record?
A: 1.01

Q: GCAGGTGCAG was tested. Which switch fluorescence ratio did it give?
A: 1.04

Q: With GCAGGTGCGT as the sequence, how does the switch fluorescence ratio read?
A: 1.11

Q: With GCAGGTTATG as the sequence, how does the switch fluorescence ratio read?
A: 1

Q: GCAGGTTATT was tested. Which switch fluorescence ratio did it give?
A: 1

Q: Which switch fluorescence ratio does the source give for GCAGTAATAA here?
A: 3.19

Q: How did the switch fluorescence ratio turn out when GCAGTACGTG was run?
A: 1.22

Q: Which switch fluorescence ratio does the source give for GCAGTCCATA here?
A: 0.965
